Experimental data reported in PubChem BioAssay AID624418 (National Center for Advancing Translational Sciences (NCATS), 2012).
The campaign covered roughly 410,000 compounds. About 530 (0.13%) were called active. This list was built around the results that the source calls inconclusive (neither active nor inactive); the mix of calls is not that of the screen. Calls come from the whole dose curve; as a rule, active = well fitted inhibition curve with a large enough effect; inconclusive = small, poorly fitted or top-dose-only effect, or another doubt; inactive = no such curve, though single readings can be large or run the other way. Potencies beside an inconclusive call are fits to weak or partial responses and may not hold up.

Assay: qHTS of GLP-1 Receptor Inverse Agonists: Cytotox Screen
Conditions: HEK293 cAMP-luciferase reporter cells, luminescence, 24 h; activity change, negative = inhibition: at 38.3 µM (top of the series) unless noted
Method in brief: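 Compound-treated cells are incubated 24 hr at 37 deg C under 5% CO2 after a 12 hour attachment period, then luciferase detection reagent is added and luminescence is measured following 12 min at room temperature; lowered signal indicates toxicity.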
% is set by controls: 0 for no effect and ±100 for the full control effect; potency is the fitted concentration of half-maximal effect.

Structure (SMILES) | Potency | activity change, negative = inhibition
CCOc1ccc(CC(=O)NCCc2csc(-c3ccc(C(F)(F)F)cc3)n2)cc1 | inactive | –
Cc1ccc(C(=O)NC(=S)N(C)Cc2ccccc2)cc1 | inconclusive: 5.62 µM [inhibitor, full curve, poor fit] | –
O=c1c(Cl)c(Cl)cnn1Cc1ccccc1Cl | inconclusive: 28.2 µM [inhibitor, single point] | –
CCc1ccccc1NC(=O)Cn1nnc(-c2nc(-c3ccc(C)cc3)no2)c1N | inactive | –
Cc1c(Cl)cccc1NC(=S)NCC1COc2ccccc2O1 (stereo not drawn) | inconclusive: 28.2 µM [inhibitor, single point] | –
O=C(c1cc(-c2ccccn2)nc2c(Cl)cccc12)N1CCN(S(=O)(=O)c2ccccc2)CC1 | inactive | –
NC(CSS(=O)(=O)O)=NCCC12CC3CC(CC(O)(C3)C1)C2 | inactive | –
CCOC(=O)/C(C#N)=C/c1c(OCC)n(CC)c2ccccc12 | inconclusive: 31.6 µM [inhibitor, single point] | –
Cc1ccc(N/N=C(\C#N)C(=O)c2ccsc2)cc1 | inconclusive: 17.8 µM [inhibitor, partial curve, poor fit] | –
O=C1/C(=C\c2ccco2)SC(=S)N1C1CCS(=O)(=O)C1 (stereo not drawn) | inconclusive: 11.2 µM [inhibitor, single point] | –
CCOc1cc(CNC(=O)CCCn2c(=O)c3cccn3c3cccnc32)cc(OCC)c1OCC | inconclusive: 0.501 µM [inhibitor, full curve, poor fit] | –
COC(=O)c1ccc(CSc2nnc(-c3ccncc3)n2Cc2ccccc2)o1 | inactive | –
N#Cc1ccc(N=c2ssnc2Cl)cc1 | inconclusive: 20 µM [inhibitor, single point] | –
C=CCOc1ccc2ccccc2c1CNCCCN1CCOCC1 | inconclusive: 7.08 µM [inhibitor, partial curve] | –
N#CC1=C2SCC(O)(c3ccccc3)N2C(=O)CC1c1ccccc1 (stereo not drawn) | inconclusive: 1 µM [inhibitor, full curve, poor fit] | –
COc1ccccc1OCCNc1cc(N2CCOCC2)ccc1[N+](=O)[O-] | inconclusive: 12.6 µM [inhibitor, single point] | –
CCOC(=O)CSC1=C(C#N)C(c2sccc2C)CC(=O)N1 (stereo not drawn) | inconclusive: 2.82 µM [inhibitor, full curve] | –
CN1C(=O)c2ccccc2Sc2ccc(NC(=O)COc3ccccc3)cc21 | inconclusive: 5.62 µM [inhibitor, full curve, poor fit] | –
COc1ccccc1NC(=O)CN1CCN(c2ccccc2)CC1 | inactive | –
CCOc1c2ccc(C(=O)NCc3ccc4c(c3)OCO4)cc2nn1CC | inconclusive: 0.501 µM [inhibitor, full curve, poor fit] | –
Cc1ccc(C)c(-n2c(-c3csc(C)c3C)n[nH]c2=S)c1 | inconclusive: 22.4 µM [inhibitor, single point] | –
CCC(CC)NC(=O)c1cc([N+](=O)[O-])ccc1N1CCOCC1 | inconclusive: 31.6 µM [inhibitor, single point] | –
COc1ccc(CCNC(=O)CSc2nc(N)c(C#N)c(-c3cccs3)c2C#N)cc1OC | inconclusive: 10 µM [inhibitor, single point] | –

Structure (SMILES) | Potency | activity change, negative = inhibition
COCCNC(=O)c1ccc(-n2c(-c3ccccc3)cc3c2CCCCC3)cc1 | inactive | –
CCn1nc(C)c(CN2CCC(C(=O)Nc3cccc(-c4cccc(Cl)c4)c3)CC2)c1C | inconclusive: 2.51 µM [inhibitor, partial curve, poor fit] | –
COc1ccc(-c2csc3nc(-c4ccc(F)cc4)oc(=O)c23)cc1 | inactive | –
Cc1ccc2oc(=O)c3cnn(CC(=O)N4CCN(c5cc(Cl)ccc5C)CC4)c3c2c1 | inactive | –
Cc1cccc(NC(=O)NC2CC(=O)N(c3ccc4c(c3)OCCO4)C2)n1 (stereo not drawn) | inconclusive: 7.08 µM [inhibitor, partial curve, poor fit] | –
COc1ccc(NC(=O)C(=O)NNC(=O)c2cccs2)cc1 | inactive | –
CC(=O)c1sc2nsc(SCCN3CCCCC3)c2c1N | inactive | –
Cc1ccc(Nc2nc(-c3sc(C)nc3C)cs2)cc1 | inconclusive: 15.8 µM [inhibitor, partial curve, poor fit] | –
COc1ccc(/C=C2/Sc3ccc(C(=O)NCCN4CCCCCC4)cc3NC2=O)cc1 | inconclusive: 28.2 µM [inhibitor, single point] | –
C=CCn1cc(/C=N/Nc2nc3ccccc3[nH]2)c2ccccc21 | inconclusive: 28.2 µM [inhibitor, single point] | –
Cc1cc(C)cc(NC(=O)Cc2ccc(NC3=NC4CS(=O)(=O)CC4S3)cc2)c1 (stereo not drawn) | inactive | –
Cc1c(CNC2CCCC(C)C2C)c(C(=O)O)c(C)n1Cc1ccccc1 (stereo not drawn) | inconclusive: 11.2 µM [inhibitor, single point] | –
COc1ccc(NC(=O)N(C)C[C@H]2Oc3c(NC(=O)Nc4ccc(C(F)(F)F)cc4)cccc3C(=O)N([C@H](C)CO)C[C@@H]2C)cc1 | inconclusive: 8.91 µM [inhibitor, partial curve, poor fit] | –
CCC1=C(OC(=O)N(CC)CC)N2C(=O)OC(=NCCc3c[nH]c4ccccc34)[C@]2(Cc2ccccc2)[C@H]2C1=CC[C@H]1C(=O)NC(=O)[C@H]12 | inconclusive: 6.31 µM [inhibitor, partial curve, poor fit] | –
COc1ccc(-c2nc(-c3ccccn3)no2)cc1 | inactive | –
COc1cccc(C(NC(C)=O)c2nc(-c3cccc(C#N)c3)cs2)c1 (stereo not drawn) | inactive | –
CC1CCN(Cc2c(C(=O)N/N=C/c3ccc(C(C)(C)C)cc3)nnn2-c2nonc2N)CC1 | inactive | –
O=C(Nc1ccccc1Cl)OC1CCCCC1 | inactive | –
CC[C@H](C)[C@@H](CN[C@H](C)CNC)NCCC(c1ccccc1)c1ccccc1 | inconclusive: 28.2 µM [inhibitor, single point] | –
COc1ccc(-c2cnnc(N/N=C/c3ccc(-c4ccc([N+](=O)[O-])cc4)o3)n2)cc1 | inconclusive: 11.2 µM [inhibitor, partial curve, poor fit] | –
CN(C)c1ccc2nc3ccc(=[N+](C)C)cc-3sc2c1 | inconclusive: 14.1 µM [inhibitor, partial curve, poor fit] | –
COc1cc(/C=C/C(=O)N2CCC=CC2=O)cc(OC)c1OC | inconclusive: 11.2 µM [inhibitor, single point] | –
O=C1CC(c2ccccc2)CC(O)=C1C=NCc1ccccc1Cl (stereo not drawn) | inconclusive: 1.58 µM [inhibitor, full curve, poor fit] | –

Structure (SMILES) | Potency | activity change, negative = inhibition
NC1=NC(=Nc2ccc(S(=O)(=O)N3CCOCC3)cc2)c2ccccc21 | inactive | –
O=C(c1cc2ccccc2cc1O)N1CCN(c2ccc([N+](=O)[O-])cc2)CC1 | inconclusive: 28.2 µM [inhibitor, single point] | –
CC(C)Nc1nc(N)c(C(=O)C23CC4CC(CC(C4)C2)C3)s1 | inconclusive: 28.2 µM [inhibitor, single point] | –
Cc1cc(NC(=S)NC(=O)C2CC2)ccc1Br | inconclusive: 11.2 µM [inhibitor, single point] | –
Cc1cc(C)c(C#N)c(SCC(=O)c2ccc(Cl)cc2Cl)n1 | inconclusive: 28.2 µM [inhibitor, single point] | –
Cc1c(Cl)cccc1NC(=S)N1CCCN(Cc2ccccc2F)C1 | inconclusive: 12.6 µM [inhibitor, single point] | –
O=C(c1ccc(F)cc1F)N1CCN(c2ccccn2)CC1 | inconclusive: 28.2 µM [inhibitor, single point] | –
COCCNC(=S)N1CCC(C(=O)c2ccc(Cl)cc2)CC1 | inactive | –
O=C(CCc1nnc(Cc2ccc(-c3ccccc3)cc2)o1)NCCc1cccnc1 | – | inconclusive: -30.4% [inhibitor]
CN(CC(=O)Nc1cccc(F)c1)C(=O)c1ccc(C(=O)c2ccccc2)cc1 | inactive | –
CON(C)S(=O)(=O)c1cccc(C(=O)Oc2ccc(N(C)S(=O)(=O)c3ccccc3)cc2)c1 | inactive | –
CC(C)N1CC(C(=O)Nc2ccc(S(=O)(=O)N3CCCCC3)cc2)CC1=O (stereo not drawn) | inconclusive: 0.447 µM [inhibitor, full curve, poor fit] | –
CCc1ccccc1NC(=O)Cn1c(=O)n(CCc2ccccc2)c(=O)c2sc3ccccc3c21 | inactive | –
COc1ccccc1-n1c(-c2ccccc2)c[n+]2c1CCc1ccccc1-2 | inconclusive: 11.2 µM [inhibitor, single point] | –
CNc1ncnc(Sc2ccc(Cl)cc2)c1[N+](=O)[O-] | inactive | –
O=c1c2ccccc2nc(SCc2ccccc2)n1Cc1ccco1 | inactive | –
NCCNc1ccc(C(=O)N2c3ccccc3Sc3ccccc32)cc1[N+](=O)[O-] | inconclusive: 7.08 µM [inhibitor, single point] | –
CC1CCN(CCCCOc2ccccc2-c2ccccc2)CC1 | inconclusive: 14.1 µM [inhibitor, single point] | –
C[C@@H]1NC(=O)c2cc([N+](=O)[O-])cc(I)c2NCC[C@@H](C(N)=O)NC(=O)[C@H](CC(N)=O)NC1=O | inconclusive: 11.2 µM [inhibitor, single point] | –
CCOc1cc(/C=C2/SC(=S)N(CC(=O)O)C2=O)ccc1OC(=O)c1cccs1 | inconclusive: 31.6 µM [inhibitor, single point] | –
Cc1cc(C)n(-c2nc(NCc3cccnc3)c3c4c(sc3n2)COC(C)(C)C4)n1 | inconclusive: 11.2 µM [inhibitor, single point] | –
Cc1ccc(S(=O)(=O)N2CC3(O)CN(C(=O)OC(C)C)N(C(=O)OC(C)C)CC3(OC(=O)NC3CCCC3)C2)cc1 (stereo not drawn) | inconclusive: 11.2 µM [inhibitor, single point] | –
